The RNAGym collection of RNA variant scans (doi:10.1093/nar/gkz1192)
Read counts are not given, so values of variants with three or more changes are uncertain.

B1: CPEB3 Ribozyme (parent)
chain: UAACAGGGGGCCACAGCAGAAGCGUUCACGUCGCAGCCCCUGUCAGAUUCUGGUGAAUCUGCGAAUUCUGCUGUAUAUCUC

Variants of: B1
Assay: self-cleavage, relative activity (ratio to wild type); higher = more cleavage; in vitro, sequencing
In short: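 Libraries of CPEB3 self-cleaving ribozyme mutants came from rounds of error-prone PCR and carried barcodes, which DNA sequencing matched to variants. In vitro transcription used T7 RNA polymerase at 37°C for 5 hours, with a further 15 min in DNase I before EDTA stopped the reaction; the ribozymes cleaved during both steps. The RNA was reverse transcribed with template switching and sequenced on Illumina. Relative activity is the cleaved/total read fraction of a variant divided by that of the unmutated ribozyme, averaged over three batches with at least 5 reads.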
For A13U A20G U60C, the self-cleavage was 0.32. A13G U31C G33C G36C C68U showed a self-cleavage of 0.14. A13U A15G A56G showed a self-cleavage of 0.66. A13U A15G A56G U72C showed a self-cleavage of 1.17. A13G U26C U31G A45G U72C gave a self-cleavage of 0.33. A13G U51G U60C gave a self-cleavage of 0.27. Variant A13G U41C U78A has a self-cleavage of 0.44. A13U A18G C34A U72C showed a self-cleavage of 0.1. For A13U A18C U25C U43A A45G A56G, the self-cleavage was 0.19. Variant A13G U41C U49C U72G has a self-cleavage of 0.43. Variant A13G U60C A64G has a self-cleavage of 0.17. Work on A13G U54C A56G yielded a self-cleavage of 0.67. In the case of A13U A20G U41A U49A A56U U80C, the self-cleavage is reported as 0.05. For A13G U41A U54C A56G U69C U74A A77G, the self-cleavage was 0.16. With A13U A20G A35C U48A G70A C79A the self-cleavage was 0.06. Work on A13U A18G U43C U78C yielded a self-cleavage of 0.14. For A13U A20G U25C U31C, the self-cleavage was 0.33. With A13G U54A U58C the self-cleavage was 0.55. A13U A20C A21C U31C A45G showed a self-cleavage of 0.25. A13U A15C A21G C34U A35G showed a self-cleavage of 0.4. A13G U31C U51A U58A gave a self-cleavage of 0.09. Work on A13G U26C C37A U43C yielded a self-cleavage of 0.23. Variant A13G U69C U76C A77G has a self-cleavage of 0.33. Work on A13U A18G U43C U58C U60C A77U yielded a self-cleavage of 0.03. Work on A13G U26C U54G yielded a self-cleavage of 0.48. In the case of A13G U26C C39G U41A A47U U69G, the self-cleavage is reported as 0.05. A13U A15U G22A G33A showed a self-cleavage of 0.05. A13U A15U U54C A64G U69A gave a self-cleavage of 0.1. A13G U31A C62U A64G showed a self-cleavage of 0.24. For A13G U41C U72A U80A, the self-cleavage was 0.84. Work on A13G U31A G70U yielded a self-cleavage of 0.42. For A13U A20G C23U C40U U72A A77G, the self-cleavage was 0.05. For A13U A18U U41C U58C U72C, the self-cleavage was 0.23. A13U A15U A45G gave a self-cleavage of 0.63. Variant A13G U41C A64U U69A U72C U80C has a self-cleavage of 0.08. In the case of A13G U48C A65G U72C, the self-cleavage is reported as 0.13. In the case of A13G U41G U51C U66C, the self-cleavage is reported as 0.08. With A13U A15G A20G U41A A45G U51C A57U the self-cleavage was 0. A13G U26C A35G A45U U60C U72C gave a self-cleavage of 0.13. With A13G U26C A45G C79A the self-cleavage was 0.37. For A13G U31C U54A A64C, the self-cleavage was 0.05. With A13G U43C U51C A56G U60C U69C U80A the self-cleavage was 0.26. Work on A13U A20G A64U G70C yielded a self-cleavage of 0.06. In the case of A13U A18G U41A U51A U60A A65C U78A, the self-cleavage is reported as 0.06. With A13G U41G U54A the self-cleavage was 0.41. A13G U41C U74A U78C showed a self-cleavage of 1.08. A13G U41A G55U U58C U78A showed a self-cleavage of 0.14. With A13G U41C U69C the self-cleavage was 0.34. For A13G U67C U72C, the self-cleavage was 0.36. Variant A13U A20G A56G U60A A77G has a self-cleavage of 0.47. With A13U A18U U41C U67C C71G the self-cleavage was 0.19. Variant A13U A15G A18U U26C C38A A56G U80C has a self-cleavage of 0.07. For A13G U54C U72A U78A, the self-cleavage was 0.34. A13G U51A U69G showed a self-cleavage of 0.46. A13G U26C U49A U51A U69C showed a self-cleavage of 0.29. A13G U26C U69A U80A showed a self-cleavage of 0.23. In the case of A13U A18U U41A U48C U49A U72A U76A, the self-cleavage is reported as 0.02. For A13U A15G A64U A77G U78C, the self-cleavage was 0.14. Work on A13G U26C A65G yielded a self-cleavage of 0.25. With A13U A20U A56G U66C U69C the self-cleavage was 0.09. For A13U A18U A21G, the self-cleavage was 0.22. A13G U41C U74C showed a self-cleavage of 0.67. Work on A13G U48C U58C U67C U76C yielded a self-cleavage of 0.11. In the case of A13U A20G U25C, the self-cleavage is reported as 0.21. For A13G U43C U49C U66A, the self-cleavage was 0.08. Variant A13G U26C U31C G55A A57U U78C has a self-cleavage of 0.14. A13G U41C U43C gave a self-cleavage of 0.43. A13G U41C U43A showed a self-cleavage of 0.44. In the case of A13G U51C G53A, the self-cleavage is reported as 1.13. A13U A15U A21G U66C A75G showed a self-cleavage of 0.39. A13G U26C U74C showed a self-cleavage of 0.47. A13U A18G A47G showed a self-cleavage of 0.36. For A13U A18G U48C U74C, the self-cleavage was 0.18. A13U A15U A28G U49C U54G gave a self-cleavage of 0.17. With A13G U31C C44U U66C U78C the self-cleavage was 0.17. For A13U A20G U26C C29A A64G, the self-cleavage was 0.18. In the case of A13U A18U A77U, the self-cleavage is reported as 0.18. A13U A15U C17A A18U A20C U41C gave a self-cleavage of 0.11. For A13G U43A U60C U78C, the self-cleavage was 0.61. A13U A20G U60A U72A U78C showed a self-cleavage of 0.19. In the case of A13U A18G A21G U41A U80A C81A, the self-cleavage is reported as 0. In the case of A13U A18G U43A, the self-cleavage is reported as 0.96. A13U A15G A21G U25A U72A gave a self-cleavage of 0.18. With A13G U31A U78G the self-cleavage was 0.59. For A13U A18G A35G U72A, the self-cleavage was 0.24. Work on A13U A18C U31C A35G U43C A56G U80A yielded a self-cleavage of 0. Work on A13G U26C U54C U58C U80C yielded a self-cleavage of 0.23. Work on A13G U60C U69C U78C yielded a self-cleavage of 0.25. A13U A21G A35G A47U showed a self-cleavage of 0.25. With A13G U54C U78C the self-cleavage was 0.93. A13G U26C C32A U48C G61U showed a self-cleavage of 0.18. A13U A15G A35G A64U showed a self-cleavage of 0.19. A13G U72C U78G showed a self-cleavage of 0.68. With A13G U31C U43C the self-cleavage was 0.26. A13G U31G U51C U58C showed a self-cleavage of 0.2. A13G U78C C79U gave a self-cleavage of 0.8. With A13U A20U C40G U78C the self-cleavage was 0.18. For A13U A20U U48C, the self-cleavage was 0.17. A13G U26C A35G U78C showed a self-cleavage of 0.51. Work on A13G U41A U51A U54C U78C yielded a self-cleavage of 0.27. A13U A18U A56C showed a self-cleavage of 0.12. For A13U A18U U25C U54C U72C, the self-cleavage was 0.09. A13U A18C C40U U66C gave a self-cleavage of 0.06. Work on A13U A15U G22A U54A yielded a self-cleavage of 0.16. A13U A20U C23U gave a self-cleavage of 0.22. For A13U A20G G22C A35U A64G, the self-cleavage was 0.44. In the case of A13G U41C A65G U80C, the self-cleavage is reported as 0.19. Work on A13G U49C U51G G63A A64G yielded a self-cleavage of 0.29. A13G U58A A65C showed a self-cleavage of 0.14. With A13U A20G C37A U58C U60C the self-cleavage was 0.04. With A13G U51A A65U U66C the self-cleavage was 0.18. Variant A13U A15G U25C U48C U58A U67C has a self-cleavage of 0.1. A13G U43A A64U gave a self-cleavage of 0.44. Work on A13G U48A U60C yielded a self-cleavage of 0.14. A13G U51A A75U showed a self-cleavage of 1.02. A13G U51C A56U showed a self-cleavage of 0.45. With A13U A20U A47U U76C U80C the self-cleavage was 0.28. With A13U A20C U54C U67C the self-cleavage was 0.06. A13U A15G A28U U54C A77G gave a self-cleavage of 0.64. With A13U A18G A35U C68U U72C the self-cleavage was 0.44. Variant A13U A15U U25C has a self-cleavage of 0.2. A13U A15G U41C A65G U78C showed a self-cleavage of 0.26. Variant A13G U72A A77G U78C has a self-cleavage of 0.72. Variant A13G U26G C50U U51C A65G U76C has a self-cleavage of 0.04. In the case of A13U A18G U58C U78C, the self-cleavage is reported as 0.35. Variant A13U A18C U25G has a self-cleavage of 0.34. A13G U26C U31A A47C U72C showed a self-cleavage of 0.13. With A13U A20G U76A the self-cleavage was 1.02. Work on A13G U43C C44G G52A A65G U72C yielded a self-cleavage of 0.07. In the case of A13G U49C U58C, the self-cleavage is reported as 0.18. Variant A13U A20G A35G U72C has a self-cleavage of 1.19. A13G U43C U66C U80C gave a self-cleavage of 0.19. In the case of A13U A15G C32U A64U U69A A75G, the self-cleavage is reported as 0.06. A13G U72A U80C showed a self-cleavage of 1. A13U A15G U31C G42A U48C U51C gave a self-cleavage of 0.06. A13U A15U U58C G73A showed a self-cleavage of 0.38. A13U A18G U48C showed a self-cleavage of 0.37. For A13U A20G A45G U48C A57C, the self-cleavage was 0.15. A13U A15G U26A gave a self-cleavage of 0.74. With A13U A18G C23U U54A U72C the self-cleavage was 0.16. Work on A13G U48C A57G U69C U80A yielded a self-cleavage of 0.57. With A13G U41A A57G U69C U78C the self-cleavage was 0.14. A13G U48C U51C C71G C81G gave a self-cleavage of 0.41. With A13U A15G A20G G36C U41A A65G A75G the self-cleavage was 0.03. Variant A13U A18U A28C has a self-cleavage of 0.15. With A13U A20U A28U A35G the self-cleavage was 0.33. Variant A13U A21G A35U U48C A57G A64G has a self-cleavage of 0.09. With A13U A20G U41C U43A U51C A77U the self-cleavage was 0.67. For A13G U54G U66C, the self-cleavage was 0.17. For A13U A15C U25C U41C A65G U78C, the self-cleavage was 0.39. Work on A13G U26C G33A U58C A75U yielded a self-cleavage of 0.24. A13U A15U A18U U72C U76C gave a self-cleavage of 0.26. Variant A13U A20G U26C C40U U54G U60A has a self-cleavage of 0.09. Work on A13U A18G U43A A57G yielded a self-cleavage of 0.56. Variant A13G U49A U74A has a self-cleavage of 0.77. A13G U48C C68U gave a self-cleavage of 0.3. For A13G U49A U58A U80C, the self-cleavage was 0.08. Work on A13G U72C A77U yielded a self-cleavage of 0.33. For A13U A18U U48C U60A A75U, the self-cleavage was 0.17. For A13G U26C U54C U58A U72C, the self-cleavage was 0.07. For A13U A15C A20U C37U C39U A45G A56U, the self-cleavage was 0.09. With A13G U60C C62A the self-cleavage was 0.25. With A13G U41A A56G U74A the self-cleavage was 0.32. For A13U A18U A20G A45U U58C U66C, the self-cleavage was 0.07. Variant A13G U41A U54G U80A has a self-cleavage of 0.18. In the case of A13G U26C C34U, the self-cleavage is reported as 0.5. A13U A15G U69A U76C showed a self-cleavage of 0.31.
